Assay results: publication PMC4336329 (PLoS ONE, 2015)
About 14,000 (4.5%) of roughly 310,000 compounds showed an effect of 50% or more. Effects have a minus sign here. Some of the results follow.

These molecules were tested against human ether-à-go-go-related gene (hERG) potassium channel (human, UniProt Q12809) (assay: primary screen, population patch clamp on CHO cells stably expressing hERG).
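Further: peak tail current of the secondary pulse compared with the same well before compound.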

human ether-à-go-go-related gene (hERG) potassium channel, sequence (Q12809 whole entry, looked up): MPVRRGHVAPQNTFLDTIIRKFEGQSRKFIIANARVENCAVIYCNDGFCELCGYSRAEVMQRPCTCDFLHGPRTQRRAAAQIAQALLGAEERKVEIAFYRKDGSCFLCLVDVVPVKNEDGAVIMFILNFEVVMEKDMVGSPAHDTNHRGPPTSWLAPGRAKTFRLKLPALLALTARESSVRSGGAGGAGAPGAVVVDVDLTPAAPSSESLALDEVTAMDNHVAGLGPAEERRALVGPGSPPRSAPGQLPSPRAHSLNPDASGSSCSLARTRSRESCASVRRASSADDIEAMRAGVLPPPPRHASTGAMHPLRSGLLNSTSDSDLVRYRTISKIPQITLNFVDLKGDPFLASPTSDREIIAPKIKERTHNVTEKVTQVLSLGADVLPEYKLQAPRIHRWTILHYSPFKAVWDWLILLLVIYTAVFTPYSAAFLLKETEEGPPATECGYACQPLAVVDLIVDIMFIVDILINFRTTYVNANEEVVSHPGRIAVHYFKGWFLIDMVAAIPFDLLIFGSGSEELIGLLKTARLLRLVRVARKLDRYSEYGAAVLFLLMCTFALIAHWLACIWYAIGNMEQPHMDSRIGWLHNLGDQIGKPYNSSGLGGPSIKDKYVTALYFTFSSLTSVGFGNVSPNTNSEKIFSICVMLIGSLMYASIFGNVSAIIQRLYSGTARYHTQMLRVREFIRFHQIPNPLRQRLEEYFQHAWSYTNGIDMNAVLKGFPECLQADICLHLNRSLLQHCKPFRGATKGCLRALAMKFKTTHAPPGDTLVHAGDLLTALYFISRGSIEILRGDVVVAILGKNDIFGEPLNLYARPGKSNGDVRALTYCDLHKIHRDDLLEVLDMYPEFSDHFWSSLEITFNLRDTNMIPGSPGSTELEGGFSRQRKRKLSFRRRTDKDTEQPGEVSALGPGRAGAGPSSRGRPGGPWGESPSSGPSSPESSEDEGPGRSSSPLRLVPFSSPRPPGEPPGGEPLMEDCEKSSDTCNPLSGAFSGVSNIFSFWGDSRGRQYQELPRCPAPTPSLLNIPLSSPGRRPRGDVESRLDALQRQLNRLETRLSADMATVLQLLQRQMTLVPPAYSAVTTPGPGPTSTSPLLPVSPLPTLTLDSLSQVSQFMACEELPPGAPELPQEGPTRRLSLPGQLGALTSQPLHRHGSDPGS

Compound | hERG current change (%, negative = inhibition) at 10uM [%]
COC(=O)C(CCCCN1C(=O)C2C3C=CC(C3)C2C1=O)N1C(=O)C2C3C=CC(C3)C2C1=O (stereo not shown) | 9.55
CN1CCC(=NNC(=O)C(=O)NC(C)(C)C)CC1 | 3.61
C(=NCCCN1CCOCC1)c1ccc2c(c1)OCO2 | 15.7
COc1ccc(CNCc2ccc3c(c2)OCO3)cc1Br.O=C(O)C(=O)O | -23.1
COc1ccc(C2c3c(ncn(CCN4CCOCC4)c3=N)Oc3ccc4ccccc4c32)cc1OC (stereo not shown) | -16.6
CC(C)(C)c1csc(N/N=C/c2cccnc2)n1 | -17.6
O=C(COc1ccc2ccccc2c1)N/N=C/C1CC=CCC1 (stereo not shown) | 1.93
O=C(C1CCCN(c2ncnc3c2nc2n3CCCCC2)C1)N1CCN(c2cccc(Cl)c2)CC1 (stereo not shown) | -72.8
O=C(c1cc2ccccc2cc1O)N1CCN(c2ccccc2O)CC1 | -16.5
CCOC(=O)CSc1nc2c(cnn2-c2ccc(F)cc2)c(=O)[nH]1 | 20.8
COc1ccc(-n2c3c(c(=O)[nH]c2=O)C(C(F)(F)F)(C(F)(F)F)N=C(CC(C)C)N3)cc1 | -1.7
O=C(COc1ccc2c(c1)oc(=O)c1ccccc12)NCCCN1CCOCC1 | -15
COc1ccc(CC(=O)N/N=C(\C)c2ccccn2)cc1 | 15.5
CN(CC(=O)NCCc1ccc(S(N)(=O)=O)cc1)c1ccccc1 | 4.43
O=C(CN1C(=O)/C(=C\c2cccc(Cl)c2)Oc2ccccc21)N1CCN(c2ccccn2)CC1 | 19.8
O=C(Nn1c(=O)[nH]c2ccsc2c1=O)c1ccccc1 | 23.9
O=c1c(C(c2ccc(Cl)cc2)c2c(O)nc3n(c2=O)CCS3)c(O)nc2n1CCS2 | 13.8
COc1ccc(NP(=O)(Oc2cccc(C)c2)Oc2cccc(C)c2)cc1OC | 14.4
COc1cccc(NC2=NCC(=O)N2Cc2cccs2)c1.Cl | 12.3
CCC(C)(C)NC(=O)C(c1ccccn1)N(C(=O)c1csnn1)c1ccccc1 (stereo not shown) | 5.39
O=C1COc2ccc(C(=O)COC(=O)CNC(=O)C3CCCCC3)cc2N1 | -7.17
O=C(COc1ccc2c3c(c(=O)oc2c1)CCC3)N[C@@H](Cc1ccccc1)C(=O)O | 16.6
O=C(NCCCn1ccnc1)c1cccc(S(=O)(=O)NCc2ccccc2)c1 | -7.03
Cn1cncc1C#Cc1ccc2cc(C3(O)CCCCC3)oc(=O)c2c1 | 9.66
O=C(N/N=C/c1ccc(O)cc1)c1cc(-c2ccc3c(c2)OCO3)n[nH]1 | 8.33
O=C(NC1CC1)C1=C[C@H](c2ccccc2)C[C@H](OCc2ccc(CO)cc2)O1 | -19.9
COc1ccc(CCNC(=O)C2CC(=O)N(CCc3ccc(C)cc3)C2)cc1OC (stereo not shown) | -14.9
Cc1ccccc1SC1CCN(C(=O)C2CCC(=O)N(C3CC3)C2)CC1 (stereo not shown) | -3.61

Compound | hERG current change (%, negative = inhibition) at 10uM [%]
Cc1cc(C)c2oc(C(=O)NC3CCS(=O)(=O)C3)cc(=O)c2c1 (stereo not shown) | -17.6
Cc1ccc(C(=O)N/N=C2/NC(=O)CC(C(=O)Nc3ccccc3)S2)cc1 (stereo not shown) | -3.81
CCc1ccc(Nc2n[n+](-c3ccccc3)c(/C=C/c3ccccc3)s2)cc1.[Cl-] | -69
O=Nc1c(O)n(Cc2cccc(C(F)(F)F)c2)c2ccccc12 | 0.334
CCOC(=O)C(=CNNc1ccsc1C(=O)OC)C(=O)OCC | 8.87
C=CCNC(=O)CSc1nnc(-c2ccc(S(=O)(=O)N3CCCC3)cc2)n1C | 12.3
C=C(C)Cn1c(SCC(=O)N/N=C/c2ccccc2OCC(=O)O)nnc1-c1ccc(Br)cc1 | 6.46
CCc1cc(/C(Cc2ccccn2)=N\Nc2ccccc2)c(O)cc1O | 14.9
N#C/C(=N\Nc1ccccc1)C(=N)N1CCOCC1 | -7.71
O=[N+]([O-])c1ccc(/C=N/N2CCN(Cc3ccccc3)CC2)cc1 | -56.3
Cc1nc(-c2ccc(NC(=O)c3ccccc3)cc2)cs1 | 3.65
CN(C)c1ccc(/C=C/c2ccc3ccccc3[n+]2C)cc1.[I-] | -59.9
O=C(O)c1ccc2c(c1)OCCO2 | 3.19
OCCSc1nc(N2CCOCC2)nc(N2CCOCC2)n1 | 4.34
CCN(C(=O)N1CCOCC1)c1ccccc1 | 18.1
CCCC(=O)Nc1ccc2nc(SCC(=O)Nc3ccc(N4CCOCC4)c(Cl)c3)sc2c1 | 14.8
Cc1cc(/C([O-])=C(/C(=S)Nc2ccc(F)cc2)[n+]2ccccc2)c(C)n1-c1ccc(F)cc1 | -4.59
CCC(=O)N1CCN(c2ccc(OC)cc2[N+](=O)[O-])CC1 | -19.5
NS(=O)(=O)c1ccc(CCNC(=O)Nc2ccc(Cl)c(Cl)c2)cc1 | 15.3
CCCn1c(CN2CCN(C(C)=O)CC2)nc2cc(S(=O)(=O)N(C)C)ccc21 | 9.97
CC1CCCC(C)N1/N=C/C=C/c1ccccc1[N+](=O)[O-] (stereo not shown) | 11.1
CCCc1nn(C)c2c1C(c1ccncc1)C(C#N)=C(N)O2 (stereo not shown) | 15.4
CNC(=S)N(CCc1c(C)[nH]c2ccc(Cl)cc12)Cc1cccnc1 | -8.94
COc1ccccc1/C=C/CN1CCC(n2nccc2NC(=O)CCc2ccccc2)CC1 | -86.1
CCn1c(/C=C\c2ccccc2C)nc2ccccc2c1=O | -19.1
CS(=O)(=O)Nc1ccc(C(=O)Nc2cccc([N+](=O)[O-])c2)cc1 | -35.2
Nc1cccc(N=Cc2c(O)n(Cc3ccc(F)cc3)c(=O)[nH]c2=O)c1 | -10.2
